The RNAGym collection of RNA variant scans (doi:10.7554/elife.90254)
The source gives no read counts; variants with many changes may rest on few reads.

B1: OR4K15 (parent)
chain: GUUAACGGUCAUAGGCCAUGGAAACUAGGAGCACCAUUUCGCUGCCAGUGAAGAAAUGAACAAAGAAAAUCUGGGCCAGGCAGGCAUCAAAAGAAAUAGUCUUGCGCUCAACCAGAAAGUCUGUAAUCAUUUUAAGGGUA

Variants of: B1
Assay: self-cleavage, relative activity (ratio to wild type); higher = more cleavage; in vitro, sequencing; the parent is a self-cleaving ribozyme

Row | Variant | self-cleavage
1 | U38C U70G A89C G104A | 0.06
2 | C34U A92U A118G | 1.34
3 | A30G A64G U72A | 0.28
4 | A18G G53U U102C | 2.11
5 | A33G U37C A55G U124C | 0.76
6 | U49A A63G U87A | 0.6
7 | U12C A24G A117U | 1.02
8 | A11C A86U U97G | 0.7
9 | A63G U100C U132C | 2.47
10 | U57C A114G A129G | 0.44
11 | A54G A62C U127C | 1.09
12 | A64C G80C U100C | 0.05
13 | U9C A62G U124C | 0.53
14 | A23G A27G U127C U132A | 0.22
15 | A13G A33G A94G A129U | 1.33
16 | A18G U108A A110G U130A A140G | 0.02
17 | U12C A18G A86G | 0.89
18 | U12A U57C A111G | 0.04
19 | A18G A68C A118G | 1.03
20 | G21A A52G A62U U100C | 1.9
21 | A33G A66G A86U U108C A116G | 0

Row | Variant | self-cleavage
22 | C35U U43C A52G U100A | 0.42
23 | A66U U87C U139C | 1.4
24 | U2C C35A G44U A59G | 1.44
25 | U12C A23G U39C A62U U102A | 0.48
26 | U38C A96G G115A | 0.24
27 | A82G A89G A117G U120A | 0.55
28 | A5G A11G G14A U43C A78C A91U A96G U102C | 0.44
29 | U19C A56G A90G | 1.26
30 | U37C U72C A89G | 0.32
31 | U26C U43A A54G A59G U139G A140U | 0.35
32 | A11G A33G A62G A116G | 0.32
33 | A90G A91G U122G | 1.16
34 | U9C U87C A89G | 1.18
35 | A24G A55G G74U | 0.08
36 | A24G A51G A91G | 1.38
37 | U2C C17U U37C A117G A135U | 1.38
38 | A5G G20A U43C U57C | 0.8
39 | A11G U19C A59G | 0.61
40 | U12C U108C U127C | 0
41 | C42U A56G U57C A78G U131C | 0.25
42 | U39A A92G A114U C128A | 0.05

Row | Variant | self-cleavage
43 | U57C A82U A134U | 0.03
44 | A23G A24G U122C | 0.6
45 | A27C G83A A98G C121U | 1.96
46 | U2A A33G U38C C121A | 1.61
47 | U3A U103C U108A | 0.02
48 | G8A U43C U57C A118G | 0.73
49 | U3C A60C A66G A116G | 0.54
50 | A36U A64U A140U | 1.88
51 | A18U A23G A63G U103C | 0.96
52 | A11G U39C A52G | 0.62
53 | A23G A33G G65A U120C | 0.34
54 | A60U U100C A111C A126G | 0
55 | A27G G41A U72C U87C A114G | 1.86
56 | U9C A22G U38C U120C U124C | 0.47
57 | A54G U100C A140G | 1.71
58 | U38C A67G U130A | 1.63
59 | A5G C34G A94U U139A | 1.17
60 | U12C A54G C101A U124C | 0.12
61 | A33G U102A U108C A134G U139A | 0
62 | U39A A63G A94G | 2.47
63 | A24G G31A A55G A78U A89G G106A | 0.01

Row | Variant | self-cleavage
64 | A36U U39C A62G | 0.97
65 | U3A A64G A114U | 0.21
66 | A5G U57C A60G | 0.48
67 | A33U A55G A59G U87C | 0.46
68 | U2C U26C A89G A94G U103C A118G | 0.37
69 | A22G U37A U43C | 1.7
70 | U39C A60U A67G A92G A95G G99A A116G | 0.11
71 | A62G U72C A86C A110G A114U | 0.01
72 | U2C U19C G29U U43A A78G A95G U130C | 0.26
73 | A11G A69U A117G | 2.31
74 | A52G A69G U124C A126G | 0.46
75 | A59U A68G G75C A89G | 0.21
76 | U39C A54G G58A | 1.8
77 | A11U A54G A63G A68G U127C | 0.91
78 | A47G A64G A118U | 0.27
79 | A24G U26C A86G A118G | 0.72
80 | A30G A89G C109A A114C | 0
81 | A63G A67U A140G | 1.5
82 | A52G A89U U122A | 1.2
83 | A13G G28A U38A A94G | 1.79
84 | A22G U38A C46U A62G | 1.49
